According to the supplement of paper PMC2702839:
Where a name gives a salt, the structure may show the parent alone. The list shows a part of the results.

These compounds were tested on Schistosoma mansoni schistosomula (assay: phenotypic hit in primary schistosomula screen (any phenotype vs DMSO control) (binary (1 = hit, 0 = no phenotype)); higher = active (phenotype induced)). Settings: 1 µM; time (d): 7.
In the case of `O=c1[nH]c(=O)n([C@H]2C[C@H](O)[C@@H](CO)O2)cc1C(F)(F)F` [trifluridine], the phenotypic hit is reported as inactive: 0.
`CN(C)c1nc(N)c(C(=O)N=C(N)N)nc1Cl` [n,n-dimethylamiloride] was tested, and the phenotypic hit was inactive: 0.
In the case of `Cc1nnc(SCC2=C(C(=O)O)N3C(=O)[C@@H](NC(=O)Cn4cnnn4)[C@H]3SC2)s1` [cefazolin sodium], the phenotypic hit is reported as inactive: 0.
With `COc1cc2c(cc1OC)[C@@H]1C(=O)c3ccc4c(c3O[C@@H]1CO2)C=CC(C)(C)O4` [deguelin] the phenotypic hit was inactive: 0.
In the case of `S=c1[nH]cnc2nc[nH]c12` [mercaptopurine], the phenotypic hit is reported as inactive: 0.
With `C[C@H]1O[C@@H](O[C@H]2[C@@H](O)C[C@H](O[C@H]3[C@@H](O)C[C@H](O[C@H]4CC[C@@]5(C)[C@H](CC[C@@H]6[C@@H]5CC[C@]5(C)[C@@H](C7=CC(=O)OC7)CC[C@]65O)C4)O[C@@H]3C)O[C@@H]2C)C[C@H](O)[C@@H]1O` [digitoxin] the phenotypic hit was inactive: 0.
`CCCCCCCCNC(C)C(O)c1ccc(SC(C)C)cc1` (stereo not drawn) [suloctidil] was tested, and the phenotypic hit was inactive: 0.
With `CC(=O)/C=C\[C@@H]1[C@@]2(C)CCCC(C)(C)C2CC[C@@]1(C)O` (stereo partly drawn) [8-hydroxy-15,16-bisnor-11-labden-13-one] the phenotypic hit was inactive: 0.
In the case of `CC(C)[C@@H]1CC[C@@H](C)CC1=O` [menthone], the phenotypic hit is reported as inactive: 0.
For `CC(C)C1COc2cc3oc(=O)ccc3cc2O1` (stereo not drawn) [dihydro-obliquin], the phenotypic hit was inactive: 0.
`CC1=CC2C(CC1=O)C(C)=CCC2C(C)C` (stereo not drawn) [muurolladie-3-one] was tested, and the phenotypic hit was inactive: 0.
With `CN(Cc1ccc(C(C)(C)C)cc1)Cc1cccc2ccccc12` [butenafine hydrochloride] the phenotypic hit was inactive: 0.
In the case of `NCCCCN` [putrescine dihydrochloride], the phenotypic hit is reported as inactive: 0.
`O=C1N=C(O)NC1(c1ccccc1)c1ccccc1` [Phenytoin sodium] was tested, and the phenotypic hit was inactive: 0.
`COc1cc2ccc(=O)oc2cc1O` [scopoletin] was tested, and the phenotypic hit was inactive: 0.
For `COc1cc(NS(=O)(=O)c2ccc(N)cc2)nc(OC)n1` [sulfadimethoxine], the phenotypic hit was inactive: 0.
With `Cc1cccc(Nc2ccncc2S(=O)(=O)NC(=O)NC(C)C)c1` [torsemide] the phenotypic hit was inactive: 0.
`CC(=O)O[C@@H]1CC[C@@]2(C)C(C[C@@H](OC(C)=O)[C@@]3(C)C4=CC(=O)O[C@@H](c5ccoc5)[C@]4(C)CCC23)C1(C)C` (stereo partly drawn) [3alpha-acetoxydihydrodeoxygedunin] was tested, and the phenotypic hit was inactive: 0.
For `Cc1cc(O)c(C)c2c1C(=O)Oc1c(C)c(O)c(C(=O)O)c(C)c1O2` [hypoprotocetraric acid], the phenotypic hit was inactive: 0.
`C=C(C)[C@H]1COc2cc3oc(=O)ccc3cc2O1` [obliquin] was tested, and the phenotypic hit was inactive: 0.
`CC(C)CCC[C@@H](C)[C@H]1CC[C@H]2[C@@H]3CC[C@H]4CC(=O)CC[C@]4(C)[C@H]3CC[C@]12C` [cholestan-3-one] was tested, and the phenotypic hit was inactive: 0.
For `CC(=O)O[C@H]1C[C@@H](O)C(C)(C)[C@@H]2C[C@@H](OC(C)=O)[C@]3(C)[C@H](CC[C@@]4(C)[C@@H](c5ccoc5)OC(=O)[C@H]5O[C@@]534)[C@@]12C` [3-deacetylkhivorin], the phenotypic hit was inactive: 0.
For `NC(=O)N1c2ccccc2CC(=O)c2ccccc21` [oxcarbazepine], the phenotypic hit was inactive: 0.
`C/C=C(/C)C(=O)O[C@H]1Cc2c(ccc3ccc(=O)oc23)OC1(C)C` [selinidin] was tested, and the phenotypic hit was inactive: 0.
In the case of `CC(=O)OCC(=O)[C@@]1(O)[C@H](OC(C)=O)C[C@H]2[C@@H]3CCC4=CC(=O)C=C[C@]4(C)[C@@]3(F)[C@@H](O)C[C@@]21C` [triamcinolone diacetate], the phenotypic hit is reported as inactive: 0.
With `O=c1cc(-c2ccc(O)cc2)oc2cc(O[C@@H]3O[C@H](CO)[C@@H](O)[C@H](O)[C@H]3O)cc(O)c12` [cosmosiin] the phenotypic hit was inactive: 0.
With `Cc1c(NC(C)C)c(=O)n(-c2ccccc2)n1C` [ramifenazone] the phenotypic hit was inactive: 0.
With `COc1c(C(=O)O)ccc2c1CCC(C)(C)O2` [dihydro-beta-tubaic acid] the phenotypic hit was inactive: 0.
In the case of `CC(C[N+](C)(C)C)OC(N)=O` (stereo not drawn) [Bethanechol chloride], the phenotypic hit is reported as inactive: 0.
In the case of `COc1ccc([C@@H]2Sc3ccccc3N(CCN(C)C)C(=O)[C@@H]2OC(C)=O)cc1` [diltiazem hydrochloride], the phenotypic hit is reported as inactive: 0.
With `Cc1cn([C@H]2C[C@H](N=[N+]=[N-])[C@@H](CO)O2)c(=O)[nH]c1=O` [zidovudine [azt]] the phenotypic hit was inactive: 0.
`COc1ccc(-c2c(O)c3cc4c(c(CC=C(C)C)c3oc2=O)OC(C)(C)CC4)cc1` [dihydrolonchocarpenin] was tested, and the phenotypic hit was inactive: 0.
In the case of `COC(=O)c1c(C)c2c(c(C)c1O)OC(=O)c1c(C)c(Cl)c(O)c(Cl)c1O2` [leoidin], the phenotypic hit is reported as inactive: 0.
For `Cc1ccc(C)c(OCCCC(C)(C)C(=O)O)c1` [gemfibrozil], the phenotypic hit was inactive: 0.
For `O=C(O)c1cc(O)c2c(c1)C(=O)c1cc(O)cc(O)c1C2=O` [emodic acid], the phenotypic hit was inactive: 0.
For `O=C(CCCN1CCC(O)(c2ccc(Cl)cc2)CC1)c1ccc(F)cc1` [Haloperidol], the phenotypic hit was inactive: 0.
With `NCCC(=O)c1ccccc1N` [kynuramine] the phenotypic hit was inactive: 0.
`COc1cc2c(cc1OC)[C@@H]1Cc3ccc(OC)c(OC)c3CN1CC2` [tetrahydropalmatine] was tested, and the phenotypic hit was inactive: 0.
In the case of `COc1cc2c(cc1OC)C1C(=O)c3c(cc4c(c3O)C=CC(C)(C)O4)OC1CO2` (stereo not drawn) [beta-toxicarol], the phenotypic hit is reported as inactive: 0.
For `NCC(=O)CCC(=O)O` [aminolevulinic acid hydrochloride], the phenotypic hit was inactive: 0.
For `NC(=O)c1ccc[n+]([C@@H]2O[C@H](COP(=O)([O-])OP(=O)(O)OC[C@H]3O[C@@H](n4cnc5c(N)ncnc54)[C@H](O)[C@@H]3O)[C@@H](O)[C@H]2O)c1` [nadide], the phenotypic hit was inactive: 0.
With `COc1c2ccoc2cc2oc(C)cc(=O)c12` [visnagin] the phenotypic hit was inactive: 0.
`C[C@@H]1CC[C@@]2(OC1)O[C@H]1C[C@H]3[C@@H]4CC[C@@H]5CC(=O)CC[C@]5(C)[C@H]4CC[C@]3(C)[C@H]1[C@@H]2C` [smilagenone] was tested, and the phenotypic hit was inactive: 0.
`COc1ccc(CN(CCN(C)C)c2ncccn2)cc1` [thonzylamine hydrochloride] was tested, and the phenotypic hit was inactive: 0.
`CCCCCC(=O)Cc1cc(O)cc(O)c1C(=O)Oc1cc(CC(=O)CCCCC)c(C(=O)O)c(OC)c1` [arthonioic acid] was tested, and the phenotypic hit was inactive: 0.
`CN1C(C(=O)Nc2ccccn2)=C(O)c2ccccc2S1(=O)=O` [piroxicam] was tested, and the phenotypic hit was inactive: 0.
For `COCCOC(=O)C1=C(C)NC(C)=C(C(=O)OC(C)C)C1c1cccc([N+](=O)[O-])c1` (stereo not drawn) [Nimodipine], the phenotypic hit was inactive: 0.
With `NCCS` [Cysteamine hydrochloride] the phenotypic hit was inactive: 0.
In the case of `C[C@H]1C/C=C/[C@H]2[C@H](O)[C@](C)(O)[C@@H](C)[C@H]3[C@H](Cc4ccccc4)NC(=O)[C@]32[C@H](O)/C=C/[C@](C)(O)C1` [cytochalasin r], the phenotypic hit is reported as inactive: 0.
With `CC1(C)[C@@H](O)CC[C@]2(C)[C@H]3C(=O)C=C4[C@@H]5C[C@@](C)(C(=O)O)CC[C@]5(C)CC[C@@]4(C)[C@]3(C)CC[C@@H]12` [enoxolone] the phenotypic hit was inactive: 0.
In the case of `Nc1nc(O)c2ncn([C@H]3C[C@H](O)[C@@H](CO)O3)c2n1` [deoxyguanosine], the phenotypic hit is reported as inactive: 0.
In the case of `Nc1nc(=O)c2c([nH]1)NCC(CNc1ccc(C(=O)N[C@@H](CCC(=O)O)C(=O)O)cc1)=N2` [dihydrofolic acid], the phenotypic hit is reported as inactive: 0.
With `COc1ccc(CC(=O)c2ccc(O)cc2O)cc1` [ononetin] the phenotypic hit was inactive: 0.
`COC1=C(OC)C(=O)C(C/C=C(\C)CC/C=C(\C)CC/C=C(\C)CC/C=C(\C)CC/C=C(\C)CC/C=C(\C)CC/C=C(\C)CC/C=C(\C)CC/C=C(\C)CCC=C(C)C)=C(C)C1=O` [coenzyme q10] was tested, and the phenotypic hit was inactive: 0.
With `CC(C)(C)NCC(O)c1ccc(O)c(CO)c1` (stereo not drawn) [Albuterol hemisulfate] the phenotypic hit was inactive: 0.
With `Cc1c(OCC(F)(F)F)ccnc1C[S+]([O-])c1nc2ccccc2[nH]1` (stereo not drawn) [lansoprazole] the phenotypic hit was inactive: 0.
With `Cn1c(=O)c2c(ncn2C)n(C)c1=O` [Caffeine] the phenotypic hit was inactive: 0.
`CCCC(CCC)C(=O)O` [Valproic acid sodium] was tested, and the phenotypic hit was inactive: 0.
With `CC(C)=CCc1c2c(c(O)c3c(=O)c(O)c(-c4ccccc4)oc13)C=CC(C)(C)O2` [sericetin] the phenotypic hit was inactive: 0.
In the case of `Cc1onc(-c2ccccc2)c1C(=O)N[C@@H]1C(=O)N2[C@@H]1SC(C)(C)[C@@H]2C(=O)O` [oxacillin sodium], the phenotypic hit is reported as inactive: 0.
For `OCC(O)CN1CCN(c2ccccc2)CC1` (stereo not drawn) [dropropizine], the phenotypic hit was inactive: 0.
In the case of `COc1cc2c(cc1OC)C(=O)OC2` [metameconine], the phenotypic hit is reported as inactive: 0.
`CC[C@H](/C=C/[C@@H](C)[C@H]1CC[C@H]2[C@@H]3CCC4=CC(=O)CC[C@]4(C)[C@H]3CC[C@]12C)C(C)C` [stigmasta-4,22-dien-3-one] was tested, and the phenotypic hit was inactive: 0.
For `COC1=CC(=O)C[C@@H](C)[C@]12Oc1c(Cl)c(OC)cc(OC)c1C2=O` [griseofulvin], the phenotypic hit was inactive: 0.
With `CC1(C)O[C@H]2[C@H](O)C[C@](O)(C(N)=O)C[C@H]2O1` [quinamide isopropylidene] the phenotypic hit was inactive: 0.
For `COc1c2c(cc3occ(-c4ccc5c(c4)OCO5)c(=O)c13)OC(C)(C)C=C2` [methyl robustone], the phenotypic hit was inactive: 0.
With `COc1ccc(-c2coc3cc(O)cc(O)c3c2=O)cc1` [biochanin a] the phenotypic hit was inactive: 0.
With `CC1(C)S[C@@H]2[C@H](N3C(=O)[C@@H](c4ccccc4)NC3(C)C)C(=O)N2[C@H]1C(=O)O` [hetacillin potassium] the phenotypic hit was inactive: 0.
